Several values for one entry are separate records, joined by “and”; a condition that tells them apart may be missing. Equal entries are not always repeated. Marks after values point to notes of the source that are not given here.
Key:
Type in all cases: cell-based
bovine granulosa cells = experiment: Cell cycle phases by flow cytometry (propidium iodide DNA content) after cell cycle inhibitors; conditions: average of the two replicates in table 4
pig ear fibroblasts = experiment: as above; conditions: for percentage of cells in G2/M / percentage of cells in Late G1 / percentage of cells in S: 26 hours; for percentage of cells in G2/M, averaged / percentage of cells in Late G1, averaged / percentage of cells in S, averaged: average of the two replicates in table 5
pig oocytes = experiment: Arrest of oocytes in MI during in vitro maturation

## Cn1cnc2c(NCc3ccccc3)nc(NCCO)nc21 [Olo, olomoucine]
Bovine granulosa cells; 100 μM
  percentage of cells in G2/M, averaged: 9.30%
  percentage of cells in Late G1, averaged: 68.22%
  percentage of cells in S, averaged: 8.33%
Pig ear fibroblasts; 100 μM
  percentage of cells in G2/M: 8.21%
  percentage of cells in G2/M, averaged: 8.21%

## C=C1[C@@H](C)[C@H]2[C@H](Cc3ccccc3)NC(=O)[C@]23OC(=O)/C=C/[C@H](O)CCC[C@@H](C)C/C=C/[C@H]3[C@@H]1O [Cyt B, cytochalasin B]
Pig oocytes; Cyt B 1 μg/ml 24-29 hours, examined 29 hours after onset of IVM
  Proportions of pig oocytes reaching MI: 85.6 ± 7.6%^a (85)
Pig oocytes; Cyt B 1 μg/ml 30-35 hours, examined 35 hours after onset of IVM
  Proportions of pig oocytes reaching MI: 50.4 ± 9.7%^b (94)
Pig oocytes; Cyt B 7.5 μg/ml 24-29 hours, examined 29 hours after onset of IVM
  Proportions of pig oocytes reaching MI: 84.6 ± 6.1%^a (88)
Pig oocytes; Cyt B 7.5 μg/ml 30-35 hours, examined 35 hours after onset of IVM
  Proportions of pig oocytes reaching MI: 59.0 ± 2.4%^b (92)

## CC[C@H](CO)Nc1nc(NCc2ccccc2)c2ncn(C(C)C)c2n1 [Ros, roscovitine]
Bovine granulosa cells; 15 μM
  percentage of cells in G2/M, averaged: 16.63%
  percentage of cells in Late G1, averaged: 79.42%
  percentage of cells in S, averaged: 4.02%
Bovine granulosa cells; 30 μM
  percentage of cells in G2/M, averaged: 14.42%
  percentage of cells in Late G1, averaged: 78.47%
  percentage of cells in S, averaged: 4.14%
Pig ear fibroblasts; 15 μM, replicates
  percentage of cells in G2/M: 23.37% and 23.80%
  percentage of cells in Late G1: 61.63% and 60.68%
  percentage of cells in S: 15.73% and 15.87%
Pig ear fibroblasts; 15 μM
  percentage of cells in G2/M, averaged: 23.59%
  percentage of cells in Late G1, averaged: 61.16%
  percentage of cells in S, averaged: 15.80%
Pig ear fibroblasts; 30 μM, replicates
  percentage of cells in G2/M: 17.13% and 17.83%
  percentage of cells in Late G1: 69.67% and 68.49%
  percentage of cells in S: 13.01% and 12.85%
Pig ear fibroblasts; 30 μM
  percentage of cells in G2/M, averaged: 17.48%
  percentage of cells in Late G1, averaged: 69.08%
  percentage of cells in S, averaged: 12.93%
